# Experimental data as given in PubChem BioAssay (Tox21).
# “And” between values parts separate entries of the source, which are not always exact repeats. Equal values may be shown once. This list was built around the results that the source calls inconclusive (neither active nor inactive); the mix of calls is not that of the screen. No potency is given beside an inconclusive call; the fits are too rough. Some structures have more than one record in an assay (separate samples or runs), and their calls can disagree. The source made the active and inactive calls. Calls follow the shape of the dose curve; as a rule, active = well fitted cell-killing curve with a large enough effect in the repeat runs; inconclusive = weak or mixed curves, or effect the other way; inactive = flat fitted curve, though single readings scatter.
# Assay: qHTS assay to identify small molecule that activate the aryl hydrocarbon receptor (AhR) signaling pathway - cell viability counter screen (AID 743086); also: nearly all actives have a fitted effect of over 45% in size
# Details: HepG2-AhR-luc viability, CellTiter-Fluor, 24 h; series mostly up to 70.3 µM
# From the text: U.S. Tox21 Program National Center for Advancing Translational Sciences [NCATS] NIH Chemical Genomics Center [NCGC] U.S. Environmental Protection Agency [EPA] National Institutes of Environmental Health Sciences [NIEHS] National Toxicology Program [NTP] U.S. Food and Drug Administration [FDA] Tox21 Assay overview: The Aryl hydrocarbon Receptor (AhR), a member of the family of basic helix-loop-helix transcription factors, is crucial to adaptive responses to environmental changes. AhR mediates cellular responses to environmental pollutants such as aromatic hydrocarbons through induction of phase I and II enzymes but also interacts with other nuclear receptor signaling pathways A cell based HepG2-AhR-luc assay (HG2L7.5c1 cell line, developed by Dr. Michael S. Denison, University of California at Davis) was used to assess the activation of AhR. HepG2 (human hepatocellular carcinoma) cells were stably transfected with an Ah receptor-responsive firefly luciferase reporter gene plasmid containing 20 dioxin responsive elements and luciferase reporter gene. Increased luciferase activity can be used to identify the compounds that induce AhR activation. The cytotoxicity of the compounds screened against the HepG2-AhR-luc cell line was tested in parallel by measuring the cell viability using CellTiter-Fluor assay in the same wells.
# Tox21 Assay Protocol Summary: 4000 cells in 5 uL/well were dispensed into white wall/solid bottom 1536-well plates using a Multidrop Combi (Thermo Fisher Scientific Inc., Waltham, MA) dispenser. After the assay plates were incubated at 37C for 5 h, 23 nL of compound or DMSO vehicle was transferred to the assay plates by a pintool station (Kalypsys, San Diego, CA). The plates were incubated at 37C for 24 hr. For cell viability measurement, 1 ul/well of CellTiter-Fluor reagent (Promega, Madison, WI) was added into the assay plates using a Flying Reagent Dispenser (FRD) (Aurora Discovery, CA),and then the assay plates were incubated at 37C for 30 min. The fluorescence intensity in the plates was measured using a ViewLux plate reader (PerkinElmer, Shelton, CT), followed by the addition of 4 uL of ONE-Glo Luciferase Assay reagent (Promega) using an FRD (Aurora Discovery). After the assay plates were incubated at room temperature for 30 min, luminescence intensity was measured using a ViewLux plate reader (Perkin Elmer).
# Potency is read from the fitted curve at half-maximal effect; tags tell the direction and shape of the fitted curve.
row,Compound,Potency
1,O=c1[nH]c2ccccc2n1C1CCN(CCCC(c2ccc(F)cc2)c2ccc(F)cc2)CC1,"inconclusive [falling, full curve]"
2,O=C(CCCN1CCC2(CC1)C(=O)NCN2c1ccccc1)c1ccc(F)cc1,"inconclusive [falling, partial curve]"
3,c1ccc2c(c1)cc1ccc3cccc4ccc2c1c34,"inconclusive [rising, full curve]"
4,CCCCCCCCCCCCCC[P+](CCCCCC)(CCCCCC)CCCCCC,active: 61.4 µM and active: 54.9 µM
5,CCCOCC(=Nc1ccc(Cl)cc1C(F)(F)F)n1ccnc1,active: 54.4 µM
6,Oc1cc(Cl)c(Cl)cc1Cl,"inconclusive [falling, single point]"
7,CCC(C)c1cc([N+](=O)[O-])cc([N+](=O)[O-])c1OC(=O)C=C(C)C (stereo not given),"inconclusive [falling, partial curve]"
8,S=C(SSC(=S)N1CCCCC1)N1CCCCC1,"inconclusive [falling, full curve]"
9,C=C(C)C(=O)[O][Sn]([CH2]CCC)([CH2]CCC)[CH2]CCC,active: 2.73 µM
10,Oc1ccc(C2(c3ccc(O)cc3)c3ccccc3-c3ccccc32)cc1,"inconclusive [falling, single point]"
11,O=[N+]([O-])c1cc(C(F)(F)F)c(Cl)c([N+](=O)[O-])c1Cl,active: 54.5 µM
12,CCC[CH2][Sn]([CH2]CCC)([O]C(C)=O)[O]C(C)=O,"inconclusive [falling, partial curve, poor fit]"
13,c1ccc(Nc2ccc3ccccc3c2)cc1,"inconclusive [falling, single point]"
14,O=C(Nc1ccccc1)Nc1ccnc(Cl)c1,inconclusive
15,N#CSCSC#N,"inconclusive [falling, single point]"
16,CCC(C)c1cc([N+](=O)[O-])cc([N+](=O)[O-])c1O (stereo not given),active: 13.7 µM
17,S=C=Nc1cccc2ccccc12,"inconclusive [falling, single point]"
18,CN1C[C@H](C(=O)N[C@]2(C)O[C@@]3(O)[C@@H]4CCCN4C(=O)[C@H](Cc4ccccc4)N3C2=O)C=C2c3cccc4[nH]cc(c34)C[C@H]21,"inconclusive [falling, partial curve]"
19,C=CC1(C)OC(=O)N(c2cc(Cl)cc(Cl)c2)C1=O (stereo not given),inactive
20,CCC[CH2][Sn]([Cl])([CH2]CCC)[CH2]CCC,active: 2.17 µM and active: 3.44 µM

row,Compound,Potency
1,CC(=O)C(Cl)(Cl)Cl,active: 23.5 µM
2,CCOC(=O)C(O)(c1ccc(Cl)cc1)c1ccc(Cl)cc1,active: 61.8 µM
3,CCC[CH2][Sn]([CH2]CCC)([CH2]CCC)[O][Sn]([CH2]CCC)([CH2]CCC)[CH2]CCC,active: 2.67 µM
4,Oc1ccc(C(c2ccc(O)cc2)(C(F)(F)F)C(F)(F)F)cc1,inconclusive
5,Nc1ccc(Cl)cc1N,"inconclusive [falling, full curve]"
6,CCCN(CCC)c1c([N+](=O)[O-])cc(S(N)(=O)=O)cc1[N+](=O)[O-],active: 44.4 µM
7,NCC(O)c1ccc(O)cc1 (stereo not given),inactive
8,O=C(Nc1ccc2[nH]ccc2c1)c1cc2cc(F)ccc2n1Cc1cccc(F)c1,"inconclusive [falling, single point]"
9,CC(=O)[O][Hg][c]1ccccc1,active: 9.44 µM and active: 4.29 µM and active: 4.86 µM
10,O=C(N[C@H]1N=C(c2ccccc2F)c2cccc3c2N(CC3)C1=O)c1cc2ccccc2[nH]1,"inconclusive [falling, single point]"
11,CCCCCCCCn1sccc1=O,"inconclusive [falling, single point]"
12,CC(C)CC(C)Nc1ccc(Nc2ccccc2)cc1 (stereo not given),active: 67.4 µM
13,O=CC(Br)(Br)Br,active: 48.4 µM
14,CC(C)(C)CC(C)(C)c1ccc(O)cc1,"inconclusive [falling, single point]"
15,CC(C)(c1ccccc1)c1ccc(O)c(C(C)(C)c2ccccc2)c1,"inconclusive [falling, partial curve, poor fit]"
16,C[C@@H]1CC[C@@]2(OC1)O[C@H]1[C@@H](O)[C@H]3[C@@H]4CC[C@H]5C[C@@H](O[C@@H]6O[C@H](CO)[C@H](O[C@@H]7O[C@H](CO)[C@@H](O)[C@H](O[C@@H]8OC[C@@H](O)[C@H](O)[C@H]8O)[C@H]7O[C@@H]7O[C@H](CO)[C@@H](O)[C@H](O[C@@H]8O[C@H](CO)[C@@H](O)[C@H](O)[C@H]8O)[C@H]7O)[C@H](O)[C@H]6O)[C@H](O)C[C@]5(C)[C@H]4CC[C@]3(C)[C@H]1[C@@H]2C,active: 20.5 µM
17,CN1CCc2cc(Cl)c(O)cc2[C@H]2c3ccccc3CC[C@@H]21,"inconclusive [falling, single point]"
18,O=[N+]([O-])c1c(Cl)c(Cl)cc(Cl)c1Cl,"inconclusive [rising, partial curve, poor fit]"
19,COc1cc(OC)c(OC)cc1C=O,"inconclusive [falling, full curve, poor fit]"
20,c1ccc2c(c1)-c1cccc3cccc-2c13,inactive
